Measurements reported in PubChem BioAssay AID184 (DTP/NCI, 2004).
Toxic doses and inconclusive results are not listed. Not every entry of the source has a single result; some have several. The other results are left out here. There may be further records. Values given together differ, and nothing given here explains why; they may come from other doses, times, organisms or constructs than stated.

Tested on: BALB/cJ mice, ADJ-PC-6 ip tumor, median survival T/C
Assay: NCI In Vivo Anticancer Drug Screen. Data for tumor model ADJ-PC-6 (intraperitoneal) in BALB/cJ mice
Settings: endpoint: median survival time, schedule: Q04DX003 (ip), higher = longer survival
Experimental: The antitumor activity of compounds was measured in mice bearing transplantable tumors. Survival or tumor size were measured and the results are expressed as the measurement made in the treated group (T) divided by the measurement made in the vehicle treated control group (C). The tumor model used in this assay is ADJ-PC-6 (intraperitoneal) in BALB/cJ mice

SMILES | T/C (dose: 100.0 mg/kg/injection, vehicle: Klucel (hydroxypropylcellulose) (HPC)) | T/C (dose: 100.0 mg/kg/injection, vehicle: saline with Tween-80) | T/C (dose: 2.5 mg/kg/injection, vehicle: saline + alcohol)
CN(C)/N=N/c1nc[nH]c1C(N)=O | 104 % of control and 177 % of control | 94 % of control, 335 % of control, 471 % of control | 
O=NN(CCCl)C(=O)NCCCl |  |  | 103 % of control, 114 % of control, 152 % of control
